# PubChem BioAssay AID588591 (National Center for Advancing Translational Sciences (NCATS), 2011)
# The whole screen tested about 390,000 compounds, of which about 4,700 (1.2%) were called active. The inconclusive results got no clear call from the source; some entries with a clear call stand among them for comparison. Calls come from the whole dose curve; as a rule, active = well fitted inhibition curve with a large enough effect; inconclusive = small, poorly fitted or top-dose-only effect, or another doubt; inactive = no such curve, though single readings can be large or run the other way. A potency beside an inconclusive call is a rough fit, not a confirmed value.
# Target: DNA polymerase eta (Homo sapiens) (UniProt Q9Y253)
# Chain of UniProt Q9Y253 (Q9Y253 whole entry, looked up): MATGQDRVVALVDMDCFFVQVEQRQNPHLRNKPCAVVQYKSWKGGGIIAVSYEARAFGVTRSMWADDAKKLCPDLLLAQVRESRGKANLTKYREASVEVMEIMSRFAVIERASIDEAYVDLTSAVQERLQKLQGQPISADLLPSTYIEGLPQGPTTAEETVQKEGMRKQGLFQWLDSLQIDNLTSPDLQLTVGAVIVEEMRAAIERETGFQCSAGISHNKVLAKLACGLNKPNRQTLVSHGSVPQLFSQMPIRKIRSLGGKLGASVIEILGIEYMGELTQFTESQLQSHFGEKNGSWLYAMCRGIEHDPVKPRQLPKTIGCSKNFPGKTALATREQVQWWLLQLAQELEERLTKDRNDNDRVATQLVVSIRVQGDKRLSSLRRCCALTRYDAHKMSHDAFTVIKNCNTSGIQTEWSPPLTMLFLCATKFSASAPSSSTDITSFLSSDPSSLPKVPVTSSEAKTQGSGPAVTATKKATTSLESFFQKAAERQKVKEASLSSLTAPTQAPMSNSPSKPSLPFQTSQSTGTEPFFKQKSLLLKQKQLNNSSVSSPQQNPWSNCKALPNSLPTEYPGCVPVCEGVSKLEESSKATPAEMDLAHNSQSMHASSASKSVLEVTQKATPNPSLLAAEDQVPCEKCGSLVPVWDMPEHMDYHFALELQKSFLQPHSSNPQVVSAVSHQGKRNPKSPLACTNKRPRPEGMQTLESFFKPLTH
# Assay: qHTS for Inhibitors of Polymerase Eta
# Settings: recombinant Pol eta, fluorescent DNA replication assay; series mostly up to 114 µM; activity change, negative = inhibition: at the top concentration
# In short: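 Fluorescent replication assay: 50 nM final substrate added after a 15 min room-temperature compound preincubation with 10 nM enzyme. Signal taken at 0 min and again at 10 min.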
# % is set by controls: 0 for no effect and ±100 for the full control effect; potency is the fitted concentration of half-maximal effect; tags give direction and shape of the fitted curve.
Structure (SMILES),Potency,"activity change, negative = inhibition"
Cc1cc2nc3c(=O)[nH]c(=O)[nH]c3nc2c([N+](=O)[O-])c1N,active: 3.55 µM,
O=C(O)c1cc(S(=O)(=O)O)cc(Nc2c3ccccc3nc3ccccc23)c1O,active: 22.4 µM,
O=C1OCC/C1=C\c1ccc(O)cc1,"inconclusive: 35.5 µM [inhibitor, partial curve, poor fit]",
N#Cc1ccsc1NC(=O)c1ccc2ncsc2c1,"inconclusive: 31.6 µM [inhibitor, full curve]",
Nc1cc([N+](=O)[O-])ccc1O,"inconclusive: 28.2 µM [inhibitor, partial curve, poor fit]",
O=C(O)c1ccccc1/C=N/NC(=O)c1cc(-c2ccco2)nc2ccccc12,active: 3.16 µM,
N=C1C(c2nc3ccccc3[nH]2)=C(O)CN1NC(=O)c1c[nH]c2ccccc12,,inactive: -8.69%
COc1ccc(CNC(=O)CN(c2ccccc2OC)S(=O)(=O)c2ccc(C)cc2)cc1,,inactive: -18.1%
CCOc1ccc(CNC(=O)c2cnc3sc(N(CC)CC)nn3c2=O)cc1OC,,inactive: 1.87%
CCOC(=O)c1sc(NC(=O)c2cc3c(s2)CCC(C)C3)nc1C (centres undefined),"inconclusive: 3.98 µM [inhibitor, partial curve, poor fit]",
COc1ccccc1C(=O)NC(=O)COC(=O)c1ccco1,,inactive: -6.22%
CCCn1c(CCC(=O)Nc2cc(Cl)c(OC)cc2OC)nc2cccnc21,,inactive: -0.341%
N#C/C(=C/c1cn(-c2ccccc2)nc1-c1cccc(S(=O)(=O)N2CCCC2)c1)C(=O)NCc1ccco1,active: 28.2 µM,
O=C(Cn1c(=O)oc2cc(S(=O)(=O)N3CCCC3)ccc21)Nc1ccc(C(F)(F)F)cc1,"inconclusive: 12.6 µM [inhibitor, full curve, poor fit]",
O=C(/C=C/c1ccccc1)C1=C(O)C(=O)N(CCO)C1c1cccc([N+](=O)[O-])c1 (centres undefined),,inactive: -9.12%
CCOc1ccc(N(CC(=O)NCCSc2ccccn2)S(C)(=O)=O)cc1,"inconclusive: 89.1 µM [inhibitor, partial curve, poor fit]",
CC(=O)c1cc2c(ccc3ccccc32)oc1=O,,inactive: -11.9%
COc1ccc(Cl)cc1NC(=O)CSc1ccc(-c2sc(C)nc2C)nn1,,inactive: -5.88%
Cc1ccc(OCC(=O)N/N=C/C=C/c2ccco2)cc1,active: 17.8 µM,
COc1cc(/C=N/NC(=O)c2ccc(COc3ccccc3Cl)o2)cc(Br)c1O,"inconclusive: 12.6 µM [inhibitor, partial curve]",
O=C(O)c1ccc(N=c2oc3cc(O)ccc3cc2C(=O)NCc2ccccc2)cc1,"inconclusive: 50.1 µM [inhibitor, partial curve]",
COc1ccc(NC(=O)c2cccc(C#N)c2)cc1NS(=O)(=O)c1ccc(F)cc1,"inconclusive: 35.5 µM [inhibitor, partial curve, poor fit]",
O=C(NC(=S)Nc1cccc(CO)c1)c1ccc(-c2ccccc2)cc1,"inconclusive: 31.6 µM [inhibitor, partial curve, poor fit]",

Structure (SMILES),Potency,"activity change, negative = inhibition"
Cc1cc(SCC(=O)c2cccc([N+](=O)[O-])c2)nc(=O)[nH]1,active: 20 µM,
O=C(Nc1c2ccccc2nc2ccccc12)C(Cl)(Cl)Cl,"inconclusive: 31.6 µM [inhibitor, partial curve, poor fit]",
Cc1ccc(S(=O)(=O)N2CCN(C(C)C(=O)Nc3ccccc3-c3ccccc3)CC2)cc1 (centres undefined),"inconclusive: 3.98 µM [inhibitor, partial curve, poor fit]",
Cn1c(=O)c2c(ncn2CC(=O)OCC(=O)Nc2sccc2C(N)=O)n(C)c1=O,"inconclusive: 39.8 µM [inhibitor, partial curve, poor fit]",
O=C(Nc1ccc2oc(-c3cccnc3)nc2c1)c1ccc(Br)o1,"inconclusive: 12.6 µM [inhibitor, partial curve]",
CCc1ccc(NC(=O)CSc2nc(-c3ccccc3)c(C#N)c(=O)[nH]2)cc1,"inconclusive: 89.1 µM [inhibitor, single point]",
COC(=O)c1ccc2nc(Nc3nc4ccc(F)cc4s3)sc2c1,"inconclusive: 25.1 µM [inhibitor, single point]",
CCCCn1cc(S(=O)(=O)c2ccc(OC)cc2)c(=O)c2cc(F)c(F)cc21,,inactive: -13.3%
CSc1ncccc1C(=O)NCC(=O)Nc1ccc(F)c(F)c1,"inconclusive: 89.1 µM [inhibitor, partial curve, poor fit]",
COc1ccc(-c2ccc3c(c2)S(=O)(=O)c2cccc(C(=O)NC4CC4)c2C3=O)cc1OC,,inactive: -6.08%
CCOc1ccc(Nc2ccc(N)c(S(=O)(=O)O)c2)cc1,active: 11.2 µM,
O=C(Cc1cn2ccsc2n1)OCc1nc2ccccc2s1,"inconclusive: 17.8 µM [inhibitor, partial curve, poor fit]",
O=C(CCNS(=O)(=O)c1ccc2c(c1)CCN2C(=O)C1CC1)N1CCN(c2ccc(F)cc2)CC1,,inactive: -18.2%
Cc1ccc(C(=O)Nc2nnc(-c3ccco3)o2)cc1C,,inactive: -20.3%
CC1(C)OC(C)(C)/C(=C/Nc2ccc(O)cc2)C1=O,active: 17.8 µM,
CC1(NC(=O)CC(c2ccccc2)(c2ccccc2)c2ccccc2)CCN(CCCc2ccccc2)C1=O (centres undefined),"inconclusive: 79.4 µM [inhibitor, partial curve, poor fit]",
COc1cccc(C(=O)COC(=O)c2ccc(NC(C)=O)cc2)c1,"inconclusive: 100 µM [inhibitor, partial curve, poor fit]",
O=C(N/N=C/c1ccco1)c1ccc(C(=O)N/N=C/c2ccco2)o1,"inconclusive: 14.1 µM [inhibitor, full curve, poor fit]",
COc1cc(NCCCC(C)N)c2ncccc2c1 (centres undefined),"inconclusive: 10 µM [inhibitor, full curve]",
CCOC(=O)c1ccc(NC(=O)c2c(NCc3cccs3)sc3c2CCCCC3)cc1,active: 79.4 µM,
CCOC(=O)[C@H]1[C@H]2COc3ccc(Br)cc3[C@@H]2N2C(=O)CN(Cc3ccco3)C(=O)[C@@]12C,"inconclusive: 15.8 µM [inhibitor, full curve, poor fit]",
OCCN(Cc1ccccc1)Cc1cccc(Cl)c1Cl,,inactive: -5.74%
CCSc1nc2ccccc2n1C(=O)/C=C\c1ccc(OC)c(OC)c1,"inconclusive: 31.6 µM [inhibitor, single point]",

Structure (SMILES),Potency,"activity change, negative = inhibition"
C#CCOCCOCCOCCNc1nc(N2CCN(C(=O)CCCCCCCCCCNC(=O)[C@H]([C@@H](C)CC)n3cc(CCCCN=C(N)N)nn3)CC2)nc(N2CCN(C(=O)CCCCCCCCCCNC(=O)[C@H](CO)n3cc(CCCSC)nn3)CC2)n1,active: 50.1 µM,
O=c1c2c(-c3cccs3)csc2[nH]c(=S)n1-c1ccccc1,"inconclusive: 14.1 µM [inhibitor, full curve, poor fit]",
CC(O)C1CCC2C3CCC4CC(O)CCC4(C)C3C(=O)CC12C (centres undefined),,inactive: -12.6%
CC1=C(C(=O)Nc2ccccc2C)C(c2ccncc2)n2nc(SCc3ccccc3)nc2N1 (centres undefined),,inactive: -8.21%
O=C(O)CN1C(=O)/C(=C\C(Br)=C\c2ccccc2)SC1=S,active: 8.91 µM,
O=c1c(C=Nc2ccc(Cl)cc2)c[nH]n1-c1cccc(Cl)n1,"inconclusive: 25.1 µM [inhibitor, single point]",
Cc1sc(-n2cccc2)c(C(=O)O)c1C,active: 89.1 µM,
CCCC(=O)Nc1cc(C(=O)O)ccc1S(=O)(=O)c1ccc(C)cc1,"inconclusive: 14.1 µM [inhibitor, full curve, poor fit]",
O=C(NCCn1cc(SCc2ccc(F)cc2)c2ccccc21)c1c(F)cccc1F,"inconclusive: 89.1 µM [inhibitor, partial curve, poor fit]",
COc1ccc(C(=O)N[C@H](C(=O)Nc2sccc2C(N)=O)C(C)C)cc1,,inactive: 12.2%
c1cc2c3c(cccc3c1)NC(c1ccc3c(c1)OCO3)N2,"inconclusive: 14.1 µM [inhibitor, full curve, poor fit]",
Oc1ccc2c(c1)OCC1(O)Cc3cc(O)c(O)cc3C21 (centres undefined),active: 17.8 µM,
CSc1ncc(Cl)c(C(=O)Nc2ccc(S(=O)(=O)N3CCC(C)CC3)cc2)n1,,inactive: -25.6%
COC(=O)c1ccc(NC(=O)COc2coc(CN3CCc4ccccc43)cc2=O)cc1,"inconclusive: 35.5 µM [inhibitor, partial curve, poor fit]",
COc1ccccc1C(=O)Nc1c(C(=O)N(CCN(C)C)Cc2ccco2)oc2ccccc12,"inconclusive: 89.1 µM [inhibitor, partial curve, poor fit]",
Cc1ccccc1NC(=O)c1ccc2nc(Cc3ccccc3)oc2c1,,inactive: -18.8%
O=C(O)C1C2C=CC(C2)C1C(=O)NCc1ccoc1 (centres undefined),"inconclusive: 11.2 µM [inhibitor, full curve, poor fit]",
Cc1ccc(/C=C/C(=O)N2CCN(S(=O)(=O)c3c(C)c(C)cc(C)c3C)CC2)o1,"inconclusive: 28.2 µM [inhibitor, partial curve, poor fit]",
Cc1c(-c2nnc(-c3ccc(C(F)(F)F)cc3)o2)cnn1-c1ccccc1,"inconclusive: 39.8 µM [inhibitor, single point]",
O=C(O)CN1C(=O)/C(=C\c2cccc(OCc3ccccc3F)c2)SC1=S,"inconclusive: 39.8 µM [inhibitor, single point]",
N#CC1=C(S)N(c2ccc(F)cc2)C(c2ccco2)NC1=O (centres undefined),,inactive: -5.58%
COc1cc(Cl)c(C)cc1NC(=O)c1cc2ccc3cccnc3c2[nH]1,"inconclusive: 70.8 µM [inhibitor, single point]",
CC(C)C(=O)N1CCN(c2ccccc2NC(=O)c2ccco2)CC1,,inactive: -99%
